# Measurements: the supplement of paper PMC7826260
# The list shows a part of the results. The data describe in vitro nicking of single-stranded DNA by Rep domains for 1 h at 37 °C with 3 µM enzyme; only the middle of the 90-letter strands is printed. The score is log2 (uncut reads / reads without enzyme); uncut sequences lie near 0, cut ones below; no hit call is given. Counts are relative to all reads; values above 0 arise when much of the pool is cut.
# Key:
# Test in all cases: uncleaved DNA left, log2 of reads against the no-enzyme library (log2 ratio); higher = less cleavage (more negative = more Rep cleavage of the k-mer); sequences stand for … in CTCGTCCG…ACCGGAGA
# [1] = test system: T1, Rep nickase domain of Muscovy duck circovirus
# T1 sequence (residues 1-111 of Rep, tag left off): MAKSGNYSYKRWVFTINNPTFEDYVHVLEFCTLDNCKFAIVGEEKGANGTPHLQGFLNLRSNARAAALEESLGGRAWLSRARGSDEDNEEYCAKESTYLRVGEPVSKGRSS
# Description: (§1)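 A pool of 90-nt single-stranded DNAs with seven random bases just before the constant AC of the nick site (name = the seven bases) was cut by 3 µM recombinant His6-SUMO-tagged Rep nickase domain (300 nM DNA, 50 mM HEPES pH 8.0, 50 mM NaCl, 1 mM MnCl2, 1 h, 37 °C, three replicates). Uncut DNA was amplified and sequenced.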
# [2] = test system: T2, Rep nickase domain of banana bunchy top virus
# T2 sequence (residues 1-94 of Rep, tag left off): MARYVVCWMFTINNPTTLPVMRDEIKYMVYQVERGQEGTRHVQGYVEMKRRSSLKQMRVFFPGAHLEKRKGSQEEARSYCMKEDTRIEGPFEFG
# Description: as §1
# [3] = test system: T3, Rep nickase domain of cabbage leaf curl virus
# T3 sequence (residues 1-116 of Rep, tag left off): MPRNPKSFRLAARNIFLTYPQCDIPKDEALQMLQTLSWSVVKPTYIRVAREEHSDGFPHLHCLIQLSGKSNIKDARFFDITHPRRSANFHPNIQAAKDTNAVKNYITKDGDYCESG
# Description: as §1
# [4] = test system: T4, Rep nickase domain of chickpea chlorotic dwarf virus
# T4 sequence (residues 1-124 of Rep, tag left off): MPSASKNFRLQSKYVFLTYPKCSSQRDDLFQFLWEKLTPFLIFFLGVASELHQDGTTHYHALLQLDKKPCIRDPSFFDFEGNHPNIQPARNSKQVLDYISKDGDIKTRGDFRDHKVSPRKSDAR
# Description: as §1
# [5] = test system: T5, Rep nickase domain of faba bean necrotic yellows virus
# T5 sequence (residues 1-98 of Rep, tag left off): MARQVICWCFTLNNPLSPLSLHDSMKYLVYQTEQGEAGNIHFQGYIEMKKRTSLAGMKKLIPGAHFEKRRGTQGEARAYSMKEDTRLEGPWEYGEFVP
# Description: as §1
# [6] = test system: T6, Rep nickase domain of maize striate mosaic virus
# T6 sequence (residues 1-117 of Rep, tag left off): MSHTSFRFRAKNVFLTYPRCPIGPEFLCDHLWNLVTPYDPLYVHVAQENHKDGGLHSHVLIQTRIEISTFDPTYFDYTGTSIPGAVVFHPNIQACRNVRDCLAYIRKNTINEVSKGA
# Description: as §1
# [7] = test system: T7, Rep nickase domain of porcine circovirus 2
# T7 sequence (residues 2-116 of Rep, tag left off): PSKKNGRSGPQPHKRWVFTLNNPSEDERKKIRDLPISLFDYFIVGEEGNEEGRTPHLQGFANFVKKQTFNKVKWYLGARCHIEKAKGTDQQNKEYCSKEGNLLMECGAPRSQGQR
# Description: as §1
# [8] = test system: T8, Rep nickase domain of tomato yellow leaf curl virus
# T8 sequence (residues 1-136 of Rep, tag left off): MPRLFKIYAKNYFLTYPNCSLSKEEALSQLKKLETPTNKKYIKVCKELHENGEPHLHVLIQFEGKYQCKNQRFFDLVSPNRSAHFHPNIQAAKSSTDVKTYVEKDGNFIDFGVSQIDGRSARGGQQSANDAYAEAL
# Description: as §1
# [9] = test system: T9, Rep nickase domain of wheat dwarf virus
# T9 sequence (residues 1-137 of Rep, tag left off): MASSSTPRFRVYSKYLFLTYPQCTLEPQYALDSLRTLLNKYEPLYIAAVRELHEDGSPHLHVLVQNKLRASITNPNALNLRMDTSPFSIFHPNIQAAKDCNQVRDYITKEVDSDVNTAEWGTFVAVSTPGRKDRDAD
# Description: as §1
Sequence,uncleaved DNA left (log2) [1],uncleaved DNA left (log2) [2],uncleaved DNA left (log2) [3],uncleaved DNA left (log2) [4],uncleaved DNA left (log2) [5],uncleaved DNA left (log2) [6],uncleaved DNA left (log2) [7],uncleaved DNA left (log2) [8],uncleaved DNA left (log2) [9]
TCAGGAG,0.0314,0.0129,-0.0183,0.862,-0.0205,0.198,0.158,-0.138,-0.0359
TTCTAAA,-0.0168,0.0132,0.14,-0.0146,0.077,0.123,-0.0599,-0.0189,0.0292
TGTAGTC,0.0504,0.0285,0.327,0.419,0.0994,0.337,0.0743,0.0887,0.00327
GCACTCA,0.0735,0.134,0.0373,-0.35,0.045,0.0806,0.0785,-0.0124,0.114
TTCGAAC,-0.00243,-0.0243,0.0899,-0.229,0.011,-0.45,-0.0265,0.0135,0.0446
GTCAGTT,-0.0593,-0.00996,0.227,0.644,-0.0471,1.38,-0.0214,0.0618,-0.0269
TATCGAT,0.0326,-0.0328,-0.298,-1.23,0.0708,0.236,-0.489,-0.00785,0.0337
ACAGGGA,0.0628,-0.023,-0.0146,0.415,-0.0767,-0.4,0.153,-0.0767,-0.0329
TCGGGCC,0.0541,-0.0136,0.286,0.63,-0.0697,0.723,0.0141,0.0449,0.084
ATATGTA,-0.316,0.0193,-0.222,-1.16,0.0592,-0.819,-0.446,0.0129,-0.0478
AACTGTG,0.179,0.186,-0.712,-0.179,0.094,-0.936,0.255,0.323,0.159
GTTCTCC,0.0195,-0.0202,0.257,0.689,-0.0243,1.58,0.0573,0.00319,0.104
ATCTTTC,0.0462,0.0259,0.0755,-0.158,0.0407,-0.764,0.0119,0.13,0.00942
ACAACTA,-0.134,-0.0554,-0.309,-1.82,-0.0364,-0.853,-0.0669,-0.172,0.0152
GACGGCT,-0.0791,-0.172,0.0267,0.00546,-0.0349,0.182,-0.0686,-0.114,-0.112
GATATAG,0.13,0.0672,-0.592,-0.448,0.0346,-1.06,0.107,0.15,0.000216
GTGTATA,-0.0684,0.0899,0.319,0.893,-0.115,1.79,0.0175,0.0615,-0.0213
ATTAGGT,-0.00184,-0.0558,0.361,1.13,-0.0581,1.41,-0.11,-0.0947,0.0296
TACCTTT,-0.218,-0.274,-1.78,-2.79,-0.144,-0.708,-3.65,-0.172,-0.481

Sequence,uncleaved DNA left (log2) [1],uncleaved DNA left (log2) [2],uncleaved DNA left (log2) [3],uncleaved DNA left (log2) [4],uncleaved DNA left (log2) [5],uncleaved DNA left (log2) [6],uncleaved DNA left (log2) [7],uncleaved DNA left (log2) [8],uncleaved DNA left (log2) [9]
TTTGCCC,0.00514,-0.128,-0.246,-0.783,0.00652,-1.1,-0.181,0.00403,-0.0909
GATACGT,0.0171,0.0396,0.176,0.417,-0.0894,0.432,-0.0473,-0.0488,0.0159
GGCTGTT,-1.03,0.117,0.163,0.54,0.0924,1.68,-2.59,0.137,-0.0767
CGACACA,-0.00573,-0.0158,-0.0062,0.331,-0.0233,1.18,0.0538,-0.0609,0.127
ACCTACT,-3.07,-0.347,-0.799,-2.74,-0.0961,-0.742,-3.21,0.00805,-0.136
GCCTCCA,-0.0528,0.00594,0.124,-0.0349,-0.0119,0.436,-0.0744,-0.157,-0.0542
CGGCTAG,0.174,0.211,0.155,0.578,0.0702,0.897,0.391,0.19,0.108
GCCCGTA,0.152,0.0494,0.263,0.306,0.191,0.0541,0.05,0.105,0.113
TCAGGTT,-0.0138,-0.136,0.266,1.13,-0.0517,1.78,0.0647,-0.222,-0.0238
AACTTCG,0.0345,0.0286,-0.908,-0.138,0.0794,-1.11,0.108,0.0928,-0.0113
CCTAATG,-0.205,-0.0565,-0.742,-0.588,0.0106,-1.19,0.0614,-0.0239,-0.0313
ATGCCCA,-0.121,-0.0767,-0.0341,-0.649,-0.0787,-0.459,-0.156,-0.0879,-0.066
CGGTCAT,-0.0563,0.0261,0.881,1.84,0.023,2.23,0.191,0.0705,0.0863
TAGCAAA,0.0716,-0.0846,0.0534,-0.524,0.0814,-0.43,-0.467,0.0544,-0.104
TATCTGT,-0.015,-0.0316,-0.0418,-0.602,-0.0335,0.289,-0.207,0.0119,-0.0564
ATAATGC,-0.00937,0.0231,-0.462,-0.694,0.0352,-1.18,0.0902,-0.0275,-0.0983
GAACATG,-0.0346,0.0108,0.43,1.18,-0.0499,1.04,0.115,-0.0309,0.115
TCCGAAC,-0.205,-0.168,0.129,0.0301,-0.135,-0.221,-0.196,-0.15,-0.187
GCAGTAG,0.00598,0.0576,-0.625,-0.46,-0.00174,-1.05,0.13,-0.00292,-0.0746

Sequence,uncleaved DNA left (log2) [1],uncleaved DNA left (log2) [2],uncleaved DNA left (log2) [3],uncleaved DNA left (log2) [4],uncleaved DNA left (log2) [5],uncleaved DNA left (log2) [6],uncleaved DNA left (log2) [7],uncleaved DNA left (log2) [8],uncleaved DNA left (log2) [9]
GCCGAGC,0.048,0.0797,0.506,0.974,0.0722,0.693,0.104,0.0471,0.0942
GGTTGTC,0.0233,0.0218,0.437,0.957,-0.0208,1.29,0.133,-0.00384,-0.0247
GCCGTAT,-0.135,-0.152,0.231,0.25,-0.0752,0.389,-0.0963,-0.125,0.0753
ATGACCA,-0.0778,-0.149,-0.00058,-0.012,-0.0806,0.364,-0.0337,-0.0907,0.0964
GCCCTAT,-0.0677,-0.0259,0.351,0.221,0.156,0.441,0.108,0.181,0.0673
TACAATT,-0.402,-1.22,-3.63,-3.11,-0.199,-1.2,-3.77,-0.154,-0.757
AATGGCA,0.121,0.0698,-0.159,-0.185,0.0744,-0.633,0.157,0.0607,0.0136
CCCGCTT,-0.165,-0.0891,-0.164,-1.74,-0.0713,-0.393,-0.403,-0.176,-0.279
CGCATGA,0.0753,-0.0223,0.0686,0.235,-0.0183,-0.141,0.195,-0.0131,-0.00653
GATAACC,-0.0504,0.071,-0.0472,-0.217,0.0087,0.421,-0.226,-0.00209,0.101
CCCTCTA,-0.0977,-0.012,0.0406,-1.3,0.125,-0.289,-0.271,0.0364,-0.00991
TGTGTCA,0.0862,0.107,0.358,0.742,0.102,1.61,0.166,0.193,0.23
GTTATGA,0.00828,0.0773,0.25,0.809,-0.0141,1.73,0.0362,0.0245,0.104
TTACCTC,0.0374,-0.00483,0.102,-1.62,-0.108,0.182,-0.886,0.0899,0.0969
AACACTA,-0.0389,-0.0727,-0.269,-2.51,0.00499,-0.708,-0.0997,-0.0746,0.0413
CCGTGGG,0.0616,-0.125,0.0836,0.244,0.0253,0.0138,-0.0215,-0.0966,-0.117
CTATCCG,-0.00655,-0.0807,-0.944,0.0387,-0.0187,-1.03,0.0484,-0.0751,-0.159
GTTCAAA,-0.0391,0.114,0.384,0.965,0.0297,1.76,0.0848,0.0809,0.0475
